Assay results published in PubChem BioAssay AID463173 (ICCB-Longwood Screening Facility, Harvard Medical School, 2010).
Among all 52,000 compounds or so, about 1,700 (3.3%) were called active. Rule as the data show it: active = survival mostly below about 52% (no sharp cut-off); inactive = mostly above about 56%. The list shows a part of the results.

What follows are molecules tested on Wild type (assay: S. aureus survival, RN4220 and DeltatarO strains – OD600, teichoic acid synthesis inhibitors, primary screen (AID 463173)). Conditions: S. aureus RN4220 wild type/DeltatarO growth, OD600, 18 h, active compounds read low, screened at 18.75 µg/mL (by protocol).
For `CN1CCN(c2nc3c(S(=O)(=O)c4ccc(Cl)cc4)nnn3c3ccsc23)CC1`, the survival was inactive: 77%. With `CCOC(=O)c1c(N)n(-c2ccc(CC)cc2)c2nc3ccccc3nc12` the survival was inactive: 77%. In the case of `O=C(NCCc1csc(-c2ccc(C(F)(F)F)cc2)n1)C(=O)Nc1ccc(F)c(Cl)c1`, the survival is reported as inactive: 101%. `CCOc1ccccc1NS(=O)(=O)c1ccc(N2CCCCS2(=O)=O)cc1` was tested, and the survival was inactive: 113%. For `Cc1ccc(N(CC(=O)N2CCN(c3ccccc3)CC2)S(=O)(=O)c2c(C)noc2C)cc1`, the survival was inactive: 83%. In the case of `Cc1nc(-c2ccc(F)cc2)sc1CCNC(=O)c1cccs1`, the survival is reported as inactive: 152%. `Cc1ccc(C)c(NC(=O)Cn2c(SCC(=O)NCc3ccccc3)nc3ccccc32)c1` was tested, and the survival was inactive: 73%. `O=C(CN1C(=O)CSc2ccc(S(=O)(=O)N3CCOCC3)cc21)NCCCN1CCCCC1` was tested, and the survival was inactive: 71%. For `COc1ccc(NC(=O)CSc2nc3ccccc3nc2N2CCCCC2)cc1`, the survival was active: 7%. `CCc1ccc(NC(=O)Cn2c(=O)n(-c3ccccc3C)c(=O)c3c2c2cc(OC)ccc2n3C)cc1` was tested, and the survival was inactive: 76%. With `CC(=O)N1CCOc2cc(S(=O)(=O)NCc3ccccc3Cl)c(Cl)cc21` the survival was inactive: 81%. In the case of `CCN1CCN(C(c2ccccc2Cl)c2sc3nc(-c4ccco4)nn3c2O)CC1` (stereo unspecified), the survival is reported as inactive: 101%. `CCOc1ccc(NC(=O)Cn2nc3c(cc2=O)CC(C)CC3)cc1` (stereo unspecified) was tested, and the survival was inactive: 88%. In the case of `CCOC(=O)c1[nH]c2c(c1Cc1ccccc1)C(=O)CC(c1ccccc1)C2` (stereo unspecified), the survival is reported as inactive: 84%. For `CCOC(=O)c1ccccc1NC(=O)N1CCC(CN2CCOCC2)CC1`, the survival was inactive: 83%. With `O=C(COCC(=O)N1CCCC1)N1CCCC1` the survival was inactive: 103%. With `Cc1ccc(-c2noc(-c3nnn(CC(=O)Nc4ccc(C)c(Cl)c4)c3N)n2)cc1` the survival was inactive: 67%. `CC(C)Oc1ccc(C(=O)NCC(c2ccc(N(C)C)cc2)N2CCc3ccccc32)cc1` (stereo unspecified) was tested, and the survival was inactive: 81%. With `CCn1c(=O)c2sccc2n2c(CCC(=O)Nc3ccc(F)cc3)nnc12` the survival was inactive: 62%. `CCN(c1ccccc1)S(=O)(=O)c1nnc(NC(=O)C2CCCCC2)s1` was tested, and the survival was inactive: 85%. For `COc1ccc2c(c1)c(N1CCCC1=O)c(C(=O)Nc1cc(C)c(Cl)cc1OC)n2C`, the survival was inactive: 85%. With `O=C(Nc1ccc(Br)cc1)c1cc(S(=O)(=O)NC2CCCC2)ccc1F` the survival was inactive: 55%. With `Cc1ccc2c(C)c(C(=O)N(Cc3ccc(N(C)C)cc3)Cc3ccco3)oc2c1C` the survival was inactive: 87%. In the case of `O=C(CCSCCc1ccccn1)Nc1ccc(Cl)cc1`, the survival is reported as inactive: 60%. With `Cc1ccc2c(c1)cc1c(=O)n(Cc3ccccc3Cl)nc(C)n12` the survival was inactive: 91%. `CCc1ccc2[nH]c(=O)c(CN(Cc3ccco3)C(=S)NCC(C)C)cc2c1` was tested, and the survival was inactive: 118%. In the case of `CCOC(=O)Cc1ccc(NC(=O)NC(C)c2c(-n3cccc3)sc(C)c2C)cc1` (stereo unspecified), the survival is reported as inactive: 98%. `Oc1c(C(c2ccccc2)N2CCCC2)sc2nc(-c3ccco3)nn12` (stereo unspecified) was tested, and the survival was active: -3%. With `COc1ccc(-c2onc(C)c2C)cc1S(=O)(=O)NCCc1ccccc1` the survival was inactive: 57%. For `CCN(CC)C(=S)NC(=O)C12CC3CC(CC(C3)C1)C2`, the survival was inactive: 101%. `CCC(=O)N1c2ncnn2C2(CCCCC2)[C@@H]2CCCC[C@@H]21` was tested, and the survival was inactive: 114%. `COc1ccc(CCN2C(=O)N(c3cccc(OC)c3)C(=O)C2CC(=O)Nc2ccccc2)cc1` (stereo unspecified) was tested, and the survival was inactive: 119%. With `Cc1cc2oc(=O)c(CC(=O)O)c(C)c2c2occ(-c3ccccc3)c12` the survival was inactive: 61%. In the case of `Cc1ccc(C)c(Cn2c(=O)n(-c3ccccc3)c(=O)c3c4c(sc32)CCCC4)c1`, the survival is reported as inactive: 104%. For `COc1cc(-n2c(=O)c3ccccc3n(Cc3cccc(Cl)c3)c2=O)cc(OC)c1OC`, the survival was inactive: 129%. In the case of `CCOC(=O)c1c(C)[nH]c(CCC(=O)NCc2cc(OC)c(OC)c(OC)c2)c1C`, the survival is reported as inactive: 69%. For `O=C(CSc1nnc(-c2ccccc2)o1)c1ccc2c(c1)OCCO2`, the survival was inactive: 110%. For `COc1ccc(CNC(=O)CN2C(=O)CCn3nc(-c4cn(C)c5ccccc45)cc32)cc1`, the survival was inactive: 80%. `COC(=O)C1=NN(C(=O)c2cccc(OC)c2)C(C)(O)C1` (stereo unspecified) was tested, and the survival was inactive: 123%. For `CCNC(=O)CC1C(=O)N(c2ccc(C)cc2)C(=O)N1CCOC` (stereo unspecified), the survival was inactive: 80%. In the case of `O=C(c1ccc2c(c1)N(Cc1cccc(Cl)c1)C(=O)c1ccccc1S2=O)N1CCC(Cc2ccccc2)CC1` (stereo unspecified), the survival is reported as inactive: 130%. `CCOC(=O)c1c(S(=O)(=O)N2CCC(C(=O)Nc3ccc(C)c(Cl)c3)CC2)c(C)n(C)c1C` was tested, and the survival was inactive: 68%. With `O=C(c1cccc([N+](=O)[O-])c1)N1CCN(c2ccc(Nc3ccccc3)nn2)CC1` the survival was inactive: 63%. With `COc1nnc(-c2ccc(N3CCCCC3)c(NC(=O)c3ccc(C)cc3)c2)c2ccccc12` the survival was inactive: 36%. `O=C(NC(NC1CCS(=O)(=O)C1)C(=O)c1ccc(Cl)cc1)c1ccco1` (stereo unspecified) was tested, and the survival was inactive: 121%. With `CCn1nc(C)c2c(-c3ccccc3)cc(=O)n(C(C)C(=O)NCCc3ccc(Cl)cc3)c21` (stereo unspecified) the survival was inactive: 82%. `O=S(=O)(c1ccc(-c2cnc(C3CC3)o2)cc1)N1CCN(c2ccc(F)cc2)CC1` was tested, and the survival was inactive: 88%. With `CCOc1ccc(NC(=O)CCCn2c(C)c3cnn(-c4ccccc4)c(=O)c3c2C)cc1` the survival was inactive: 89%. For `CCOc1cccc(CNCCCSc2nnnn2C)c1`, the survival was inactive: 88%. For `COc1ccc(OC)c(NC(=O)CSC2=Nc3ccccc3C3=NC(CC(=O)NCCc4ccccc4)C(=O)N23)c1` (stereo unspecified), the survival was inactive: 73%. `Cc1ccc2c(c1)c1c3n2CCN(C(=O)c2ccc(C(F)(F)F)cc2)C3CCC1` (stereo unspecified) was tested, and the survival was inactive: 49%. With `Cc1ccccc1-c1nnc(N(C)C(=O)C2CC2)s1` the survival was inactive: 109%. In the case of `COc1ccc(-c2cc(C(F)(F)F)n3nc(C(=O)Nc4cc(C)ccc4C)cc3n2)cc1`, the survival is reported as inactive: 70%. In the case of `CC1=C(C(=O)OCc2ccc(C)cc2)C(c2cccc(F)c2F)CC(=O)N1` (stereo unspecified), the survival is reported as inactive: 85%. For `CCOC(=O)c1sc2ccccc2c1S(=O)(=O)N1CCN(c2cc(C)ccc2C)CC1`, the survival was inactive: 73%. With `O=C(C1CCN(c2ncnc3c2nc2n3CCCCC2)CC1)N1CCN(c2ccc(Cl)cc2)CC1` the survival was inactive: 55%.
